Reference: article PMC4546648
These are yes or no findings as the source states them, for the method shown. In cells and extracts the contact can be indirect. Some entries that bind do so weakly or less than the wild type. For some assays here: Tags and fused reporters may be left off the sequences shown.

By UniProt entry, the sequences of proteins in these tests, tags left out.
UniProt P60953: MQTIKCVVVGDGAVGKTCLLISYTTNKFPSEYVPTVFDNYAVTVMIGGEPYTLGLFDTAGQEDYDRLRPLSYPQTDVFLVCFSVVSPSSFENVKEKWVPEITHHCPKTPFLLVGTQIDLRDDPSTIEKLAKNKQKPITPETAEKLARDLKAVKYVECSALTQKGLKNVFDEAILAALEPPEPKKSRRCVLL

Assays:
[1] = target: T1, PLCγ1, endogenous in HuAR2T endothelial cells (human (endogenous in HuAR2T)) (UniProt P19174); experiment: co-IP; endogenous PLCγ1 immunoprecipitated with anti-PLCγ1 antibody and protein A sepharose from pre-cleared HuAR2T rKSHV.219 lysate, with or without induction of the lytic cycle; western blot
T1 sequence: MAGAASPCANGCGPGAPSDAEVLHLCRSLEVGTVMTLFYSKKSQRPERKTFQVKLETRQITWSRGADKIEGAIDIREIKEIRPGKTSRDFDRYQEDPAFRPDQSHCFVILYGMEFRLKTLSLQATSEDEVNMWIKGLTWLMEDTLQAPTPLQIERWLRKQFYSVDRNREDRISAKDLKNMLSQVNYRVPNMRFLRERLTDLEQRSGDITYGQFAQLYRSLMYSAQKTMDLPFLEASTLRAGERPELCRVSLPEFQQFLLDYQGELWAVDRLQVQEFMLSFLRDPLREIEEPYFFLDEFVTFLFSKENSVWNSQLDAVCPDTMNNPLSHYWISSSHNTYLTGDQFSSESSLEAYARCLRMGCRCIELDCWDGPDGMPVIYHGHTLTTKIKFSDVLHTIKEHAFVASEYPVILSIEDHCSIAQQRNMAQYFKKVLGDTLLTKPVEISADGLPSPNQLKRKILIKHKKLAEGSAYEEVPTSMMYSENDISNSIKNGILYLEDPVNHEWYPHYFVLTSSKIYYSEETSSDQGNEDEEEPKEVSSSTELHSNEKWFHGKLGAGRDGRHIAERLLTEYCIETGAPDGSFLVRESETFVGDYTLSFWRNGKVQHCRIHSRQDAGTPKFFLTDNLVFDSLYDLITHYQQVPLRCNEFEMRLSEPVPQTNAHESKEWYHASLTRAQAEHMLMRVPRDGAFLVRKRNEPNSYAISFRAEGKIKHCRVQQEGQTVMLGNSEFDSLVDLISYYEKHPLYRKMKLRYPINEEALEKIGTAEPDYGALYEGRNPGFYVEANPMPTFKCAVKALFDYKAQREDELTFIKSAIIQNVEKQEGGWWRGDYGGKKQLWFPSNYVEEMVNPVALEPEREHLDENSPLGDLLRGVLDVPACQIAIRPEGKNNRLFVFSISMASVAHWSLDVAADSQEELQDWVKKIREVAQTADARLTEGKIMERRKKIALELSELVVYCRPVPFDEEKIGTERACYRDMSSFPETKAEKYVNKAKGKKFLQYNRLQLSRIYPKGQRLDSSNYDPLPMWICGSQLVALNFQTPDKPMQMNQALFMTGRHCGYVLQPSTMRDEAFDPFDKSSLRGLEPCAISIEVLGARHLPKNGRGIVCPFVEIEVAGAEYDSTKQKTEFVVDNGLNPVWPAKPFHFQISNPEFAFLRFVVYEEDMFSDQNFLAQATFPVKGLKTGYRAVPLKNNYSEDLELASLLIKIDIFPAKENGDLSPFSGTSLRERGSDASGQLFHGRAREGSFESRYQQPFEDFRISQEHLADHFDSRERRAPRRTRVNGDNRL

[2] = target: T2, GST-K15P cytoplasmic domain (aa 347-489) (Kaposi's sarcoma herpesvirus (KSHV, HHV-8)) (UniProt Q9QR69); experiment: pull-down; competition: GST-K15P cytoplasmic domain on beads pulls down endogenous PLCγ1, GIT1 and cdc42 from lysates of HEK293T transfected with 0.5, 1 or 2 μg of PLCγ2 cSH2 plasmid; western blot; only the target purified
T2 sequence: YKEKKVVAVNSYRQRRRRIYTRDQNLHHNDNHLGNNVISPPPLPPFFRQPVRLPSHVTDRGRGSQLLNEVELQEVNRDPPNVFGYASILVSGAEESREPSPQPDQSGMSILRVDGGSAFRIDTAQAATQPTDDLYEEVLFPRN

[3] = target: T2, GST-K15P cytoplasmic domain (aa 347-489) (Kaposi's sarcoma herpesvirus (KSHV, HHV-8)); experiment: pull-down; GST-K15P cytoplasmic domain on glutathione beads incubated overnight at 4°C with pre-cleared lysate of HEK293T transfected with PLCγ2 constructs; western blot; only the target purified
[4] = target: T2, GST-K15P cytoplasmic domain (aa 347-489) (Kaposi's sarcoma herpesvirus (KSHV, HHV-8)); experiment: as above; remark: listed apart in the source
[5] = target: S-tagged PLCγ1 R586L (UniProt P19174); experiment: co-IP; HEK293T co-transfected; lysed in IP buffer (150 mM NaCl, 25 mM tris HCl pH 7.6, 1 mM EDTA, 1% glycerol, 0.2% NP-40); S-tagged construct captured on S protein agarose beads overnight at 4°C; western blot
[6] = target: T3, S-tagged PLCγ1 wt (UniProt P19174); experiment: as above
T3 sequence: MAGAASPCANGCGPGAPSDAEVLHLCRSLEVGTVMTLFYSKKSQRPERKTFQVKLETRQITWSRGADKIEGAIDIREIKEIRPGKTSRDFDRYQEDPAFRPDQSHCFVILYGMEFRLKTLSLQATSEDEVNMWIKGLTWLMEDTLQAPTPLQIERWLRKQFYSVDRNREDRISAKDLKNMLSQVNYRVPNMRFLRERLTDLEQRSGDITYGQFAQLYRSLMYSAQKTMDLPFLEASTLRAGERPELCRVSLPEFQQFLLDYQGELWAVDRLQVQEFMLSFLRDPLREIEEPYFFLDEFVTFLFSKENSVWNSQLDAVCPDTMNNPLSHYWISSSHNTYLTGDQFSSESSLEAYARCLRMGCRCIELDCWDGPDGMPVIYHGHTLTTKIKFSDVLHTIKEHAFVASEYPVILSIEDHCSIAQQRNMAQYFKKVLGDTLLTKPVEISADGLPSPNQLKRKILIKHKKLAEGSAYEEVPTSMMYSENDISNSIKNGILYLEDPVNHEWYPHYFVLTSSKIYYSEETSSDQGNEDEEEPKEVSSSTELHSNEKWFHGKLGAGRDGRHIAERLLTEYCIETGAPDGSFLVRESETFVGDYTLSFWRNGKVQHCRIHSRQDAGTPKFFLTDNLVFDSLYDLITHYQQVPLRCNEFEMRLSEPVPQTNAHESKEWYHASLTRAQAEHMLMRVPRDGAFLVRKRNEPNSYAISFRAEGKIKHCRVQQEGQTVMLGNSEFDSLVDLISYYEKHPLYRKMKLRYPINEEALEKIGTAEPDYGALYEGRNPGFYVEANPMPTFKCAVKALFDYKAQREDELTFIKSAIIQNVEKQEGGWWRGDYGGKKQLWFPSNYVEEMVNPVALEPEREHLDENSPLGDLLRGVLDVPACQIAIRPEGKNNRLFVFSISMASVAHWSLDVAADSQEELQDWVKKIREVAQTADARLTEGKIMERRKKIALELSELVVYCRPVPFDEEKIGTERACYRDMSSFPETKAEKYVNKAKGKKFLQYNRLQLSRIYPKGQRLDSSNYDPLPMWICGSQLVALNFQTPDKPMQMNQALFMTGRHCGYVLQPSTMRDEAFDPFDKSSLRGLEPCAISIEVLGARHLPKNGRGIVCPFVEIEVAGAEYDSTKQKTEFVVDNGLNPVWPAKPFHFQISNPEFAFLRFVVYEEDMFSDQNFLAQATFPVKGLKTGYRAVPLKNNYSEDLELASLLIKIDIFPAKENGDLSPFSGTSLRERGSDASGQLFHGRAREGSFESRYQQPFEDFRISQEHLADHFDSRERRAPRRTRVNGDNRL

## cdc42, endogenous in HuAR2T endothelial cells (from UniProt P60953 1-191)
[1]
  binding: binds

## cdc42, endogenous in HEK293T cells (from UniProt P60953 1-191)
[2]
  binding: binds

## isolated PLCγ2 SH3 domain (from UniProt P16885 769-829) (domain or fragment)
[3]
  binding: no binding

B1: full length PLCγ2 (enzyme, UniProt P16885 1-1265)
chain: MSTTVNVDSLAEYEKSQIKRALELGTVMTVFSFRKSTPERRTVQVIMETRQVAWSKTADKIEGFLDIMEIKEIRPGKNSKDFERAKAVRQKEDCCFTILYGTQFVLSTLSLAADSKEDAVNWLSGLKILHQEAMNASTPTIIESWLRKQIYSVDQTRRNSISLRELKTILPLINFKVSSAKFLKDKFVEIGAHKDELSFEQFHLFYKKLMFEQQKSILDEFKKDSSVFILGNTDRPDASAVYLHDFQRFLIHEQQEHWAQDLNKVRERMTKFIDDTMRETAEPFLFVDEFLTYLFSRENSIWDEKYDAVDMQDMNNPLSHYWISSSHNTYLTGDQLRSESSPEAYIRCLRMGCRCIELDCWDGPDGKPVIYHGWTRTTKIKFDDVVQAIKDHAFVTSSFPVILSIEEHCSVEQQRHMAKAFKEVFGDLLLTKPTEASADQLPSPSQLREKIIIKHKKLGPRGDVDVNMEDKKDEHKQQGELYMWDSIDQKWTRHYCAIADAKLSFSDDIEQTMEEEVPQDIPPTELHFGEKWFHKKVEKRTSAEKLLQEYCMETGGKDGTFLVRESETFPNDYTLSFWRSGRVQHCRIRSTMEGGTLKYYLTDNLTFSSIYALIQHYRETHLRCAEFELRLTDPVPNPNPHESKPWYYDSLSRGEAEDMLMRIPRDGAFLIRKREGSDSYAITFRARGKVKHCRINRDGRHFVLGTSAYFESLVELVSYYEKHSLYRKMRLRYPVTPELLERYNMERDINSLYDVSRMYVDPSEINPSMPQRTVKALYDYKAKRSDELSFCRGALIHNVSKEPGGWWKGDYGTRIQQYFPSNYVEDISTADFEELEKQIIEDNPLGSLCRGILDLNTYNVVKAPQGKNQKSFVFILEPKQQGDPPVEFATDRVEELFEWFQSIREITWKIDTKENNMKYWEKNQSIAIELSDLVVYCKPTSKTKDNLENPDFREIRSFVETKADSIIRQKPVDLLKYNQKGLTRVYPKGQRVDSSNYDPFRLWLCGSQMVALNFQTADKYMQMNHALFSLNGRTGYVLQPESMRTEKYDPMPPESQRKILMTLTVKVLGARHLPKLGRSIACPFVEVEICGAEYDNNKFKTTVVNDNGLSPIWAPTQEKVTFEIYDPNLAFLRFVVYEEDMFSDPNFLAHATYPIKAVKSGFRSVPLKNGYSEDIELASLLVFCEMRPVLESEEELYSSCRQLRRRQEELNNQLFLYDTHQNLRNANRDALVKEFSVNENQLQLYQEKCNKRLREKRVSNSKFYS
[4]
  binding: no binding

B2: KSHV K15 protein expressed from the viral genome in KSHV infected endothelial cells (protein, UniProt Q9QR69 27-489)
chain: VTTNSIDTMASLLVMCILFVSAINKYTQAISSNNPKWPSSWHLGIIACIVLKLWNLSTTNSVTYACLITTAILSLVTAFLTLIKHCTACKLQLEHGILFTSTFAVLMTNMLVHMSNTWQSSWIFFPISFTLSLPFLYAFATVKTGNIKLVSSVSFICAGLVMGYPVSCCKTHTCTATAAGLSLSSIYLGFTGIISTLHKSWAPPKRGILTFLLLQGGVLTTQTLTTELLAITSTTGNIKGHEILLLVCLIFLWCLYVWQSFNKASLVTGMLHLIAAWSHTGGCVQLVMLLPSGLTRGILTMIICISTLFSTLQGLLVFYLYKEKKVVAVNSYRQRRRRIYTRDQNLHHNDNHLGNNVISPPPLPPFFRQPVRLPSHVTDRGRGSQLLNEVELQEVNRDPPNVFGYASILVSGAEESREPSPQPDQSGMSILRVDGGSAFRIDTAQAATQPTDDLYEEVLFPRN
[1]
  binding: binds

B3: K15P wt (protein, UniProt Q9QR69 27-489)
chain: VTTNSIDTMASLLVMCILFVSAINKYTQAISSNNPKWPSSWHLGIIACIVLKLWNLSTTNSVTYACLITTAILSLVTAFLTLIKHCTACKLQLEHGILFTSTFAVLMTNMLVHMSNTWQSSWIFFPISFTLSLPFLYAFATVKTGNIKLVSSVSFICAGLVMGYPVSCCKTHTCTATAAGLSLSSIYLGFTGIISTLHKSWAPPKRGILTFLLLQGGVLTTQTLTTELLAITSTTGNIKGHEILLLVCLIFLWCLYVWQSFNKASLVTGMLHLIAAWSHTGGCVQLVMLLPSGLTRGILTMIICISTLFSTLQGLLVFYLYKEKKVVAVNSYRQRRRRIYTRDQNLHHNDNHLGNNVISPPPLPPFFRQPVRLPSHVTDRGRGSQLLNEVELQEVNRDPPNVFGYASILVSGAEESREPSPQPDQSGMSILRVDGGSAFRIDTAQAATQPTDDLYEEVLFPRN
[5]
  binding: binds
[6]
  binding: binds

B4: PLCγ1, endogenous in HEK293T cells (enzyme, UniProt P19174 1-1290)
chain: MAGAASPCANGCGPGAPSDAEVLHLCRSLEVGTVMTLFYSKKSQRPERKTFQVKLETRQITWSRGADKIEGAIDIREIKEIRPGKTSRDFDRYQEDPAFRPDQSHCFVILYGMEFRLKTLSLQATSEDEVNMWIKGLTWLMEDTLQAPTPLQIERWLRKQFYSVDRNREDRISAKDLKNMLSQVNYRVPNMRFLRERLTDLEQRSGDITYGQFAQLYRSLMYSAQKTMDLPFLEASTLRAGERPELCRVSLPEFQQFLLDYQGELWAVDRLQVQEFMLSFLRDPLREIEEPYFFLDEFVTFLFSKENSVWNSQLDAVCPDTMNNPLSHYWISSSHNTYLTGDQFSSESSLEAYARCLRMGCRCIELDCWDGPDGMPVIYHGHTLTTKIKFSDVLHTIKEHAFVASEYPVILSIEDHCSIAQQRNMAQYFKKVLGDTLLTKPVEISADGLPSPNQLKRKILIKHKKLAEGSAYEEVPTSMMYSENDISNSIKNGILYLEDPVNHEWYPHYFVLTSSKIYYSEETSSDQGNEDEEEPKEVSSSTELHSNEKWFHGKLGAGRDGRHIAERLLTEYCIETGAPDGSFLVRESETFVGDYTLSFWRNGKVQHCRIHSRQDAGTPKFFLTDNLVFDSLYDLITHYQQVPLRCNEFEMRLSEPVPQTNAHESKEWYHASLTRAQAEHMLMRVPRDGAFLVRKRNEPNSYAISFRAEGKIKHCRVQQEGQTVMLGNSEFDSLVDLISYYEKHPLYRKMKLRYPINEEALEKIGTAEPDYGALYEGRNPGFYVEANPMPTFKCAVKALFDYKAQREDELTFIKSAIIQNVEKQEGGWWRGDYGGKKQLWFPSNYVEEMVNPVALEPEREHLDENSPLGDLLRGVLDVPACQIAIRPEGKNNRLFVFSISMASVAHWSLDVAADSQEELQDWVKKIREVAQTADARLTEGKIMERRKKIALELSELVVYCRPVPFDEEKIGTERACYRDMSSFPETKAEKYVNKAKGKKFLQYNRLQLSRIYPKGQRLDSSNYDPLPMWICGSQLVALNFQTPDKPMQMNQALFMTGRHCGYVLQPSTMRDEAFDPFDKSSLRGLEPCAISIEVLGARHLPKNGRGIVCPFVEIEVAGAEYDSTKQKTEFVVDNGLNPVWPAKPFHFQISNPEFAFLRFVVYEEDMFSDQNFLAQATFPVKGLKTGYRAVPLKNNYSEDLELASLLIKIDIFPAKENGDLSPFSGTSLRERGSDASGQLFHGRAREGSFESRYQQPFEDFRISQEHLADHFDSRERRAPRRTRVNGDNRL
[2]
  binding: binds
